The values below come from PubChem BioAssay AID463173 (ICCB-Longwood Screening Facility, Harvard Medical School, 2010).

Structures are written as SMILES. About 4,300 (8.3%) of roughly 52,000 compounds were called active. No stated cut-off is given here; in the data, active means survival mostly below about 52% (no sharp cut-off); inactive means mostly above about 56%. The list shows a part of the results.

In the assay the test system is DeltatarO mutant. The assay is described as follows: S. aureus survival, RN4220 and DeltatarO strains – OD600, teichoic acid synthesis inhibitors, primary screen (AID 463173). The settings on record: S. aureus RN4220 wild type/DeltatarO growth, OD600, 18 h, stronger effect = lower value, screened at 18.75 µg/mL (by protocol).
On to `CC(C)(C)NC(=O)c1c(N)no[n+]1[O-]`, for which the survival was inactive: 92%.

Regarding `CSc1cccc(NC(=O)Nc2ccccc2OCc2cc(=O)n3cc(C)ccc3n2)c1`, the survival is inactive: 102%.

For `CCOCCCNC(=O)c1ccc(-n2c(-c3ccccc3)cc3c2CCC(C)C3)cc1` (stereo unspecified), the survival is inactive: 105%.

Take `COc1ccc(OCc2ccc(-c3nc(C#N)c(NC(C)c4ccccc4)o3)o2)cc1` (stereo unspecified): the survival is inactive: 82%.

With `CC1CCCN(S(=O)(=O)Cc2ccccc2)C1` (stereo unspecified), the survival is inactive: 94%.

As for `Cc1nn(CC(=O)Nc2ccc(OC(F)(F)F)cc2)c(=O)c2c(C)n(-c3ccc(Cl)cc3)nc12`, the survival is active: 25%.

On to `Cc1cccc(C)c1Nc1c(-c2ccccn2)nc2c(C)cccn12`, for which the survival is inactive: 51%.

Consider `CCOc1ccc2nc(N3CCCC(C(=O)NCCc4ccc(OCC)c(OCC)c4)C3)sc2c1` (stereo unspecified), for which the survival was inactive: 52%.

For `COc1ccc(CCNC(=O)c2nc(-c3ccc(Cl)cc3)n3c2CCCCC3)c(OC)c1`, the survival is inactive: 94%.

As for `Cc1ccc2c(=O)cc(-c3cccc(F)c3)oc2c1`, the survival is inactive: 98%.

Take `COC(=O)c1ccccc1NC(=O)C1=CC(c2cccs2)=NS(=O)(=O)N1C`: the survival is inactive: 83%.

Consider `COc1ccc(-n2nc3cc(C)c(NC(=O)c4ccc(-c5ccc(Cl)cc5)o4)cc3n2)cc1`, for which the survival is inactive: 45%.

For `Cc1cc(OCC(=O)Nc2cc(-c3nc4ncccc4o3)ccc2C)ccc1Cl`, the survival is inactive: 50%.

Turning to `Oc1cccc(N=Cc2sc(=S)n(C3CCCCC3)c2O)c1`, the survival was inactive: 84%.

As for `COc1ccc(C)cc1NC(=O)C1CCN(S(=O)(=O)c2cc(Br)cc3c2N(C(C)=O)CC3)CC1`, the survival was inactive: 76%.

For `CCOC(=O)N1CC=C2C(C#N)=C(N)C(C#N)(C#N)C(c3ccc(CC)cc3)C2C1` (stereo unspecified), the survival is inactive: 88%.

Take `O=C(Cn1c(-c2ccccc2)noc1=O)Nc1cccc(Cl)c1Cl`: the survival was inactive: 98%.

As for `COc1ccc(C)c2sc(N3CCN(C(=O)c4cccc(F)c4)CC3)nc12`, the survival was inactive: 128%.

As to `CCOc1ccccc1NC(=O)N(Cc1ccc(C)o1)C1CCN(C(C)=O)CC1`, the survival was inactive: 101%.

Turning to `Cc1ccc(-c2cc3ncc4c(n3n2)-c2cc(F)ccc2OC4)cc1`, the survival is inactive: 108%.

In the case of `CCOC(=O)CNC(=O)N1CCCN(S(=O)(=O)c2ccc3c(ccn3CC)c2)CC1`, the survival is inactive: 87%.

Consider `CCc1nn2c(=O)cc(COC(=O)c3ccccc3)nc2s1`, for which the survival is inactive: 86%.

Regarding `Cc1ccc(-c2nnc(NC3CCCC3)s2)cc1`, the survival was inactive: 76%.

Consider `CCn1c(SCc2c(F)cccc2Cl)nc(=O)c2c(C(=O)OC)cc(C3CC3)nc21`, for which the survival is inactive: 55%.

Regarding `O=C(c1ccccc1Br)N(Cc1ccco1)Cc1ccco1`, the survival is active: 45%.

`O=C(CSc1nnc(-c2ccc(Cl)cc2)o1)c1ccc([N+](=O)[O-])cc1`: the survival is inactive: 55%.

In the case of `CCN1C(C)=C(C)S/C1=C1\SC(=S)N(C2CCCCC2)C1=O`, the survival was inactive: 86%.

In the case of `Cc1ccc(Nc2c(-c3ccc(C)s3)nc3ccccn23)cc1`, the survival was active: 31%.

For `Cc1cc(Cl)ccc1NC(=O)Cc1ccc(NC(=O)N2CCCCc3ccccc32)cc1`, the survival was inactive: 87%.

With `CCCCn1c(=O)n(-c2cc(OC)ccc2OC)c(=O)c2c3c(sc21)CN(C(C)=O)CC3`, the survival is inactive: 108%.

As to `COc1ccc(-n2nc(C(=O)Nc3cc(C)ccn3)c3c4ccccc4n(C)c3c2=O)cc1`, the survival was inactive: 95%.

As for `Cc1cc(Nc2cccc(Cl)c2)nc2ccc(NC(=O)c3cncc(Br)c3)cc12`, the survival is inactive: 69%.

With `O=C(CC1N=C2c3ccccc3N=C(SCc3ccccc3Cl)N2C1=O)NCCc1ccccc1` (stereo unspecified), the survival was inactive: 80%.

`Cc1oc(-c2ccccc2Cl)nc1CS(=O)(=O)CC(=O)NCc1ccc(F)cc1`: the survival is inactive: 72%.

For `CCC(C(=O)NCc1ccccc1OC)n1nc(C)n2c(cc3occc32)c1=O` (stereo unspecified), the survival is inactive: 80%.

Take `CCOc1ccccc1NC(=O)CN(C)S(=O)(=O)c1ccc(C(=O)N2CCOCC2)s1`: the survival was inactive: 96%.

Turning to `O=c1c(=O)n(-c2ccc(F)c(F)c2)ccn1Cc1ccc(F)cc1Cl`, the survival was inactive: 88%.

Turning to `Nc1nnc(CCS(=O)(=O)c2cc(Cl)ccc2Cl)s1`, the survival was inactive: 106%.

As to `COc1ccc(C)cc1NC(=O)C1CCCN(c2ncnc3onc(C)c23)C1` (stereo unspecified), the survival was inactive: 76%.

Turning to `CCOC(=O)C1=C(CS(=O)(=O)c2ccc(F)c(C)c2)NC(=O)NC1c1ccccc1OC` (stereo unspecified), the survival is inactive: 81%.

`CCCc1nnc(NC(=O)c2nc(SCC)ncc2Cl)s1`: the survival was inactive: 76%.

With `CCc1nn(CC(=O)N2CCCCC2)c(=O)c2cc3occc3n12`, the survival was inactive: 87%.

Take `CCOC(=O)c1noc2ncn(CC(=O)Nc3cccc(C(F)(F)F)c3)c(=O)c12`: the survival was inactive: 81%.

For `Cc1cccc(NC(=O)CCn2cnc3ccccc3c2=O)c1`, the survival was inactive: 118%.

In the case of `CCOc1ccc(NC(=O)N2CCN(c3nnc(C)c4c(C)n(-c5ccccc5)nc34)CC2)cc1`, the survival is inactive: 119%.

As to `CCOC(=O)C1(CC)C(=O)OC(C(=O)NC2CCCCC2)C1C` (stereo unspecified), the survival is inactive: 89%.

Regarding `COc1ccc(-c2nnc(SCC(=O)NCCC(C)C)nc2-c2ccc(OC)c(OC)c2)cc1OC`, the survival is inactive: 79%.

On to `Cc1ccc(CNCc2ccccc2Cl)s1`, for which the survival was inactive: 73%.

For `CCc1cccc(C)c1NC(=O)Cn1nc(C)n2cccc2c1=O`, the survival was inactive: 92%.

Consider `COC(=O)c1cc2oc(C)cc2n1CC(=O)Nc1ccc(C(C)C)cc1`, for which the survival was inactive: 66%.

With `CCCCNC(=O)c1ccc2c(=O)n(Cc3ccc(OC)cc3)c(=O)[nH]c2c1`, the survival was inactive: 68%.

In the case of `CCOC(=O)Cn1c(=O)n(CC2CCCO2)c2nc(-c3ccccc3)nc(C(N)=O)c21` (stereo unspecified), the survival is inactive: 84%.

For `COc1ccc(C(=O)Nc2ccc(N(C)Cc3ccccc3)c(C(=O)O)c2)cc1`, the survival was inactive: 94%.

In the case of `CCOC(=O)C1=C(CN2CCN(c3ccccc3OC)CC2)NC(=O)NC1c1ccccc1` (stereo unspecified), the survival is inactive: 70%.

`CC(C)NC(=O)N1[C@H](c2cccs2)[C@@H](C)C(=O)[C@@H](C)[C@@H]1c1cccs1`: the survival was inactive: 51%.

Turning to `O=C(CN1CCCN(Cc2ccccc2F)S1(=O)=O)Nc1ccc(F)c(Cl)c1`, the survival is inactive: 68%.

In the case of `Cc1cc(C)cc(NC(=O)N2CCC(CN3CCOCC3)CC2)c1`, the survival was inactive: 80%.

With `Cc1nn(C)cc1CN(C)C(=O)c1cc(-c2ccccc2)nc2ccc(Br)cc12`, the survival is inactive: 67%.

As for `COc1ccc(OCC(=O)N2CCc3ccccc3C2)cc1`, the survival is inactive: 80%.

As for `O=C(Nc1cccc(C(F)(F)F)c1)c1cnn(-c2cccc(F)c2)c1C1CCNCC1`, the survival was inactive: 81%.

As to `Cc1ccc(NC(=O)CCS(=O)(=O)c2ccc(Br)s2)c(Br)c1`, the survival is inactive: 60%.

As to `CCOc1ccc(CCNC(=O)c2oc(=O)c3ccccc3c2-c2ccc(C)cc2)cc1OCC`, the survival is inactive: 70%.

Turning to `CC(C)(C)c1ccc(C(=O)NCCc2csc(-c3ccc(Cl)cc3)n2)cc1`, the survival was inactive: 78%.

Turning to `CC1=C(C(=O)NCc2cccc(F)c2)C2(CCCCC2)OC1=O`, the survival is active: 37%.

Turning to `CC1Cc2ccccc2N1C(=O)CSc1nc2ccc(NC(=O)COc3ccccc3)cc2s1` (stereo unspecified), the survival is inactive: 75%.

Turning to `N#Cc1c(C(F)(F)F)cc(-c2cccs2)nc1SCc1ccc(F)cc1`, the survival is inactive: 125%.

Regarding `CCOC(=O)C(C)Sc1ccc2nnc(CCNS(=O)(=O)c3ccc(C)cc3)n2n1` (stereo unspecified), the survival was inactive: 88%.

For `Cc1ccccc1CSc1cn(CC(=O)N2CCCCC2)c2ccccc12`, the survival is active: 71%.

`CCOC(=O)c1c(C)oc2nc(C)nc(NCC3CCN(Cc4ccc(C)cc4)CC3)c12`: the survival is inactive: 91%.

Regarding `CCCCN(CCCC)CCCNC(=O)Cn1cc2c(n1)-c1c(oc(C(=O)N3CCCC3)c1C)CC2`, the survival is inactive: 89%.

Turning to `O=C(NCc1ccco1)C1CC(c2ccccc2O)=NO1` (stereo unspecified), the survival is inactive: 87%.

`CCOC(=O)c1ccc(N2C(=O)c3[nH]nc(-c4ccc(C)cc4)c3C2c2cccs2)cc1` (stereo unspecified): the survival is inactive: 80%.

`CC(C)C(c1nnnn1Cc1ccccc1)N1CCN(c2ccccc2)CC1` (stereo unspecified): the survival was inactive: 87%.

On to `CCCc1nc2nc(C)c(NS(=O)(=O)c3ccc(CC(C)C)cc3)c(=O)n2[nH]1`, for which the survival was inactive: 79%.

On to `CCOC(=O)c1c(C)[nH]c(C)c1S(=O)(=O)N1CCC(C(=O)Nc2ccc(OCC)cc2)CC1`, for which the survival is active: -1%.

Turning to `CCCCn1cc(S(=O)(=O)c2cc(C)ccc2C)c(=O)c2cc(F)c(N3CCC(C)CC3)cc21`, the survival was inactive: 89%.

For the compound `CC(C)OCCCNc1ncnc2sc3c(c12)CCCC3`, the survival is active: 42%.

In the case of `Cc1ccc(C)c(Cn2c(=O)n(CCCCC(=O)NCc3ccc4c(c3)OCO4)c(=O)c3ccccc32)c1`, the survival was inactive: 88%.

For `CCCC(=O)Nc1cc2nn(-c3ccccc3)nc2cc1C`, the survival is inactive: 62%.

As to `CCc1ccccc1NC(=O)Nc1c(C)n(C)n(-c2ccccc2)c1=O`, the survival is inactive: 88%.

For `CCc1cccc(NC(=O)CN(c2ccc(C)c(C)c2)S(=O)(=O)c2ccsc2C(=O)OC)c1`, the survival is active: -5%.

With `COc1ccc(C(=O)NCC(c2ccco2)S(=O)(=O)c2ccc(F)cc2)cc1` (stereo unspecified), the survival is inactive: 68%.

Turning to `Cc1cc(NC(=O)CCn2c(=O)c3cccn3c3cccnc32)ccc1Br`, the survival was inactive: 102%.

Consider `O=C(NCc1ccc2c(c1)OCO2)c1cccc(C(=O)NCc2ccc3c(c2)OCO3)c1`, for which the survival is inactive: 70%.

For the compound `CCCN1CCN(c2nnc(-n3cccc3C(=O)Nc3cc(Cl)ccc3C)s2)CC1`, the survival is inactive: 115%.

Take `CCSc1ncc(Cl)c(C(=O)Nc2nc3ccc(S(C)(=O)=O)cc3s2)n1`: the survival is inactive: 91%.

Turning to `COc1ccc(-n2c(=O)c3sc4ccccc4c3n(C)c2=O)cc1`, the survival is inactive: 94%.

`CC1=C(C)C(=O)N(c2ccccn2)C1=O`: the survival is inactive: 93%.

For the compound `Cc1ccc(NC(=O)C2CCCN(S(=O)(=O)c3cccc4nsnc34)C2)cc1C` (stereo unspecified), the survival is inactive: 79%.

Regarding `CCCn1c(CCC(=O)Nc2cc(C(=O)OC)cc(C(=O)OC)c2)nc2cccnc21`, the survival is inactive: 110%.

On to `N#C/C(=C/Nc1cccc2ccccc12)c1nc2ccccc2o1`, for which the survival was inactive: 54%.
